Data as given in PubChem BioAssay (Tox21).
Where “and” joins values, the source holds several entries; their conditions need not be identical. Identical values can stand only once. The inconclusive results got no clear call from the source; some entries with a clear call stand among them for comparison. Potencies of inconclusive entries are doubtful fits and often do not repeat. A structure can be active in one record and inactive in another. Calls of active or inactive are those of the source. Calls come from the whole dose curve; as a rule, active = well fitted curve in the direction sought with a large enough effect in the repeat runs; inconclusive = weak or mixed curves; inactive = no such curve, though single readings can be large; an effect the other way counts as inactive or inconclusive.

Assays:
[1] = qHTS RealTime-Glo MT Cell Viability Assay in HEK293 cells - 24 hour (AID 1224886); note: nearly all actives have a fitted effect of over 50% in size
Method in brief: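 Reads taken at 0, 8, 16, 24, 32 and 40 h from the same wells. HEK293 cells (600/well) carried RealTime-Glo reagents from seeding, with compound added after a 5 h settle at 37 C.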

[2] = A CellTox Green Cytotoxicity Assay to monitor cytotoxicity in HEK293 cells - 16 hour (AID 1224888); note: nearly all actives have a fitted effect of over 35% in size
Method in brief: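 Homogeneous no-lysis format: HEK293 cell suspension mixed with CellTox Green reagent, seeded, incubated 5 h at 37 C/5% CO2, then dosed by pintool with compound in DMSO.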

[3] = qHTS RealTime-Glo MT Cell Viability Assay in HepG2 cells - 0 hour (AID 1224889); note: nearly all actives have a fitted effect of over 50% in size
Method in brief: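 HepG2 suspension premixed with RealTime-Glo reagents is plated at 600 cells per well and left 5 h at 37 C/5% CO2. Compounds in DMSO then go in, and bioluminescence reflecting viable cell number is recorded over 40 h.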

[4] = A CellTox Green Cytotoxicity Assay to monitor cytotoxicity in HepG2 cells - 8 hour (AID 1224890); note: nearly all actives have a fitted effect of over 45% in size
Method in brief: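 Fluorescent DNA-binding dye, 600 HepG2 cells/well, 5 h preincubation then compound in DMSO; same plates read at 0–40 h, 37 C.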

[5] = qHTS RealTime-Glo MT Cell Viability Assay in HEK293 cells - 8 hour (AID 1224887); note: nearly all actives have a fitted effect of over 50% in size
Method in brief: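 Measured as luminescence from the same continuously cultured HEK293 wells at successive time points (0, 8, 16, 24, 32, 40 h) after compound addition. Reagent present from seeding; dosing at 5 h; incubation 37 C.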

[6] = qHTS assay to identify small molecule antagonists of the estrogen receptor alpha (ER-alpha) signaling pathway using the BG1 cell line in the presence of 0.1 nM 17-beta-estradiol - cell viability counter screen (AID 1259241); note: nearly all actives have a fitted effect of over 40% in size
Method in brief: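 Live-cell protease activity (CellTiter-Fluor fluorescence, 30 min) was read in the same wells after VM7Luc4E2 cells had been exposed to compounds with 0.1 nM 17beta-estradiol for 22 hr at 37C.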
Potency is the fitted concentration of half-maximal effect; tags give direction and shape of the fitted curve.

In the case of `CN[C@H]1CC[C@@H](c2ccc(Cl)c(Cl)c2)c2ccc(S(N)(=O)=O)cc21`, the Potency [1] is reported as active: 21.9 µM, the Potency [2] is reported as active: 24.5 µM and the Potency [3] is reported as inconclusive: 27.5 µM [rising, partial curve]. The Potency [4] was inconclusive: 54.9 µM [activator, single point].
In the case of `CCCCCCCCCCCCc1ccc(O)cc1`, the Potency [5] is reported as active: 43.6 µM, the Potency [2] is reported as active: 49 µM and the Potency [4] is reported as active: 17.4 µM. The Potency [6] was inconclusive: 54.5 µM [cytotoxic, single point].
For `c1ccc2[nH]ccc2c1`, the Potency [5] was inconclusive: 1.92 µM [cytotoxic, full curve].
For `Cc1cc(OCCOCC[N+](C)(C)Cc2ccccc2)ccc1C(C)(C)CC(C)(C)C`, the Potency [5] was active: 48.7 µM and active: 23.9 µM, the Potency [2] was active: 38.7 µM and active: 23.9 µM and the Potency [3] was inconclusive: 43.4 µM [cytotoxic, partial curve]. For the same compound, the Potency [6] was inconclusive: 76.5 µM [cytotoxic, single point].
For `CCCCCN=C(N)N/N=C/c1c[nH]c2ccc(OC)cc12`, the Potency [5] was active: 8.49 µM, the Potency [2] was active: 7.56 µM and the Potency [3] was inconclusive: 23.9 µM [rising, single point].
With `COc1ccc(CCN2CCC(Nc3nc4ccccc4n3Cc3ccc(F)cc3)CC2)cc1` the Potency [5] was active: 12.6 µM and active: 9.52 µM, the Potency [2] was active: 35.4 µM and active: 26.8 µM and the Potency [4] was active: 39.8 µM and active: 23.9 µM. The Potency [6] was active: 49.6 µM and inconclusive: 26.6 µM [cytotoxic, partial curve, poor fit].
For `Cc1ccc(-n2[nH]c(C)c(N=Nc3cccc(-c4cccc(C(=O)O)c4)c3O)c2=O)cc1C`, the Potency [1] was inconclusive: 23.9 µM [cytotoxic, partial curve] and the Potency [6] was inconclusive: 21.1 µM [cytotoxic, partial curve].
For `O=C(O)c1ccc(S(=O)(=O)N(Cl)Cl)cc1`, the Potency [5] was active: 49.3 µM.
With `Oc1ccc(-c2ccccc2)c(Cl)c1` the Potency [5] was inconclusive: 27.5 µM [cytotoxic, partial curve, poor fit], the Potency [2] was inconclusive: 61.6 µM [activator, single point] and the Potency [4] was inconclusive: 54.9 µM [activator, single point].
For `O=C(Nc1ccccc1)c1cc(Cl)ccc1O`, the Potency [1] was inconclusive: 19.5 µM [cytotoxic, partial curve] and the Potency [6] was inconclusive: 27.3 µM [cytotoxic, partial curve].
With `Oc1cc2ccccc2c2ccccc12` the Potency [5] was active: 3.47 µM.
In the case of `CCc1cc(Cc2cc(CC)cc(C(C)(C)C)c2O)c(O)c(C(C)(C)C)c1`, the Potency [5] is reported as active: 13.8 µM, the Potency [2] is reported as inconclusive: 61.7 µM [activator, single point] and the Potency [4] is reported as inconclusive: 54.9 µM [activator, single point]. The Potency [6] was inconclusive: 61.1 µM [cytotoxic, partial curve].
In the case of `CC(O)C(=O)O` (centres undefined), the Potency [4] is reported as inconclusive: 15.1 µM [activator, single point].
For `Clc1ccc2n[nH]nc2c1`, the Potency [3] was “inactive”.
For `NCc1cccc(CN)c1`, the Potency [2] was inconclusive: 54.9 µM [activator, single point].
In the case of `SCCCCCCCCS`, the Potency [4] is reported as inconclusive: 19.5 µM [activator, single point].
With `Nc1ccc(O)c(C(=O)O)c1` the Potency [6] was inconclusive: 27.3 µM [cytotoxic, partial curve, poor fit].
For `c1ccc2c(c1)-c1cccc3c1c-2cc1ccccc13`, the Potency [4] was “inactive” and the Potency [6] was “inactive”.
In the case of `CN(C)CCN(Cc1cccs1)c1ccccn1`, the Potency [2] is reported as inconclusive: 4.51 µM [activator, single point] and the Potency [6] is reported as inconclusive: 28.2 µM [cytotoxic, single point].
With `CCCCC(CC)COS(=O)(=O)O` (centres undefined) the Potency [2] was inconclusive: 1.1 µM [activator, single point].
With `CC(C)(C)NC(=O)[C@H]1CC[C@H]2[C@@H]3CC[C@H]4NC(=O)C=C[C@]4(C)[C@H]3CC[C@]12C` the Potency [3] was inconclusive: 43.2 µM [cytotoxic, partial curve] and inconclusive: 34.7 µM [cytotoxic, partial curve].
